First the molecules themselves.
B1: CPEB3 Ribozyme (parent)
chain: UAACAGGGGGCCACAGCAGAAGCGUUCACGUCGCAGCCCCUGUCAGAUUCUGGUGAAUCUGCGAAUUCUGCUGUAUAUCUC

The source gives no read counts; variants with many changes may rest on few reads.

In this series the parent is B1. In words: self-cleavage, relative activity (ratio to wild type); higher = more cleavage; in vitro, sequencing. The essentials:
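Relative activity compares each variant's cleaved/total read fraction with that of the unmutated ribozyme. To get these fractions, barcoded CPEB3 ribozyme libraries from rounds of error-prone PCR were transcribed with T7 RNA polymerase for 5 hours at 37°C and then given 15 min of DNase I treatment before EDTA was added. The RNAs were reverse transcribed with template switching and sequenced on Illumina, and DNA sequencing linked barcodes to variants. A minimum of 5 reads applied, and three batches were averaged.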
For C11G U58A U74C, the self-cleavage was 0.22.

As for C12U A20G U58C, the self-cleavage was 0.61.

As to C11U A18G G19U U60A, the self-cleavage came out at 0.08.

C11U A18G U26C A56U: the self-cleavage was 0.17.

Regarding C12U A15G G33A A45G U74C U80C, the self-cleavage amounted to 0.08.

Consider C11U G30U C37U A45U U48C U66C, for which the self-cleavage amounted to 0.05.

Regarding C12G U25A U26C C29G U74A, the self-cleavage is 0.04.

On to C12A U43C A65C, for which the self-cleavage was 0.08.

Turning to C11G U54C U74G, the self-cleavage amounted to 0.46.

As to C11U A20G U31C U58A U67C U72C, the self-cleavage was found to be 0.21.

Turning to C12G A20G C32A U41A U60C, the self-cleavage was found to be 0.05.

As to C11U U25C U43A C50A, the self-cleavage is 0.26.

As to C11U A20G U49C, the self-cleavage worked out at 0.09.

C11U G16U A21G A47G U74C: the self-cleavage came out at 0.34.

For C12A A15U U25C U58C A64G U74C, the self-cleavage turned out to be 0.07.

On to C12G U25C A64G, for which the self-cleavage turned out to be 0.28.

With C12G A13U U25C C40A U69A U74C, the self-cleavage was 0.04.

C11U A18G U78C: the self-cleavage was found to be 0.16.

With C12A A13G A18C A65G, the self-cleavage worked out at 0.14.

Turning to C12A U26A G33A U54A A56U A77C, the self-cleavage was 0.08.

For C12U A21G C40A U67C, the self-cleavage was determined as 0.38.

Regarding C12G U41A U43A U54C A57G U60C U76C, the self-cleavage amounted to 0.08.

C12A A13G U26C A28G G52A: the self-cleavage was determined as 0.24.

As to C11U U31A U66C, the self-cleavage came out at 0.07.

For the variant C12A A18U A21G A28G U31C G33A C40A, the self-cleavage amounted to 0.06.

For the variant C12G A18C U25C U26C U43C C68G, the self-cleavage was 0.

Take C11G U51C U54C: the self-cleavage stood at 0.48.

On to C11U A56G U80A, for which the self-cleavage came to 0.5.

For the variant C12U A13G G19U U43A A56G A57U U66A, the self-cleavage was found to be 0.04.

C11U A13U U31A U41C U60A: the self-cleavage came to 0.1.

As for C11U G63A A75G, the self-cleavage came out at 0.12.

With C11U C27U A28G A56U A64G, the self-cleavage was found to be 0.07.

Regarding C12U A21G A64G U80C, the self-cleavage came to 0.75.

Turning to C11U C37A U54A U60A A64G U69A A75G, the self-cleavage is 0.05.

Turning to C11U U31A U60C, the self-cleavage was determined as 0.06.

Consider C12G U43A C81A, for which the self-cleavage came out at 1.22.

Consider C11U G46C U72C, for which the self-cleavage was 0.16.

For C12A U43C U51C, the self-cleavage came to 0.82.

Regarding C12U A15U A21U A35U A56G A64G U72A, the self-cleavage was determined as 0.22.

As to C12G A13G U26A C44G C62G U72A, the self-cleavage was determined as 0.07.

On to C11U G42C U49C A64G U69C G73A, for which the self-cleavage turned out to be 0.12.

In the case of C12A G24A U51A U67C, the self-cleavage stood at 0.13.

Regarding C12A A18G G24A, the self-cleavage turned out to be 0.28.

Take C12A A35U C37U U48C C59G: the self-cleavage was 0.14.

Turning to C12A C27A A28G U31A U54G A65C U67A, the self-cleavage came to 0.15.

For the variant C12U A15G A35G U43A U67C, the self-cleavage was 0.38.

Turning to C12A A21U U25C U31C U43A U51G U54A, the self-cleavage came to 0.08.

Consider C11U C17U C62A U67C A77G, for which the self-cleavage amounted to 0.13.

In the case of C11U A35U G42A, the self-cleavage was determined as 0.12.

For C12U A20C A35C A57G U60C, the self-cleavage stood at 0.05.

C11U U25C A64U U67C: the self-cleavage was 0.04.

Regarding C12U A35G A45G U60C U66C U72A A77C, the self-cleavage was 0.43.

Turning to C11U A20G A64C, the self-cleavage was 0.14.

Regarding C11U A13U U31A U41C A77G, the self-cleavage stood at 0.3.

On to C11U A13G U78C, for which the self-cleavage amounted to 0.24.

Consider C11U A13G A57G A64U U66A U76A, for which the self-cleavage amounted to 0.13.

In the case of C12U A13G A35C A56G U69A U78G C81U, the self-cleavage is 0.11.

For the variant C12U A15G A56U U80C, the self-cleavage turned out to be 0.46.

For C12G A45U A56C, the self-cleavage came out at 0.08.

In the case of C11U A20G A45G, the self-cleavage stood at 0.62.

For C12U A15U U48A, the self-cleavage was found to be 0.53.

Take C11U U26C A28G: the self-cleavage came out at 0.35.

Regarding C11U A21G U25G C29U A35G U48C, the self-cleavage is 0.19.

With C12A U41C U72C U78C, the self-cleavage came to 1.23.

In the case of C11U A13G A18G U51A U76C, the self-cleavage came out at 0.06.

Turning to C11U U48C U49C U72A, the self-cleavage worked out at 0.07.

Take C12G A21G U67C U72A A77G U78C: the self-cleavage came out at 0.1.

In the case of C12A A13U A21G U58C, the self-cleavage was found to be 0.3.

C11U U74A U80A: the self-cleavage came out at 0.89.

In the case of C11U A20U U26A U43C U51C C59A, the self-cleavage stood at 0.04.

For the variant C12A A65G U69A A75U, the self-cleavage is 0.14.

As to C12A U25C A45G U48C A64U U66C, the self-cleavage worked out at 0.03.

For the variant C11U A18G C38A U43C U51C C68U U72A, the self-cleavage is 0.04.

Regarding C11U U26C U72C, the self-cleavage was 0.33.

Turning to C12G A13C A21G U31G C62G U72C, the self-cleavage is 0.04.

For the variant C11U U31G U60C, the self-cleavage was found to be 0.13.

As for C11U A21G A35G U54G, the self-cleavage stood at 0.47.

As for C11U A45G U67C A77U, the self-cleavage was 0.14.

With C11U U58C A64U, the self-cleavage was 0.13.

With C11G U67A U78C, the self-cleavage was 0.1.

C11U C50A U54C U58A U66C U67C U76G: the self-cleavage is 0.04.

Regarding C12A U25A U41C U78C, the self-cleavage was determined as 0.14.

Take C11U U26A U60C A77G: the self-cleavage came out at 0.05.

Consider C12G C17G A64G, for which the self-cleavage came out at 0.19.

The record behind these values is the RNAGym collection of RNA variant scans (doi:10.1093/nar/gkz1192).
